Laboratory results published in PubChem BioAssay (NCI).
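Dose response: 5 concentrations. Exposure: 48 h. Format: 96-well plates. Endpoint: linear interpolation; highest concentration if not reached. GI50: concentration for 50% inhibition of growth. TGI: total growth inhibition.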

Tested on: NCI-H322M lung
Experiment: DTP human tumour cell line panel, 48 h

Compound | GI50 [µM] | TGI [µM]
CCC(=O)OC1=CN2C(=NC(c3ccc(N)cc3)=CC2c2cc(OC)c(OC)c(OC)c2)S1 (stereo not drawn) | 3.32 | 12.2
COc1cccc2ccc3c(c12)C(=O)OC31CCc2c(C)cccc21 (stereo not drawn) |  | > 46.4
O=S1(=O)CC(Br)C(Br)C1 (stereo not drawn) | 27.7 | > 100
COc1cc(CC2CC(c3ccc4c(c3)OCO4)OC2=O)cc(OC)c1OC (stereo not drawn) |  | > 100
Cc1nn2c(/C=C3\C(=O)Nc4ccccc43)c(C)nc2s1 | > 100 | > 100
O=c1cccccc1NCCNc1cccccc1=O |  | > 100
CCCC(=O)OC1CC(n2cc(F)c(=O)[nH]c2=O)OC1CO (stereo not drawn) |  | > 10
CCCCCCCCCCCCCCCCNc1ccn(C2CC(OP(=O)(O)OCC3OC(n4cc(CC)c(=O)[nH]c4=O)CC3O)C(CO)O2)c(=O)n1 (stereo not drawn) |  | > 100
O=C1C2=C(c3ccccc31)C(c1ccc(F)cc1)N1C(=O)CCSC1=N2 (stereo not drawn) |  | > 100
N[C@H](C(=O)O)[C@@H](Cl)CC(=O)O |  | > 100
COC(=O)C1=C(C)NC2(C)OC(C)(O)C(C(C)=O)C12C(C)=O (stereo not drawn) |  | > 100
COc1ccc(C2NC(=O)Nc3c2c(=O)oc2c3ccc3ccccc32)cc1 (stereo not drawn) |  | > 100
O=C(/C=C/c1ccccc1)CCc1c(O)c2ccccc2oc1=O |  | > 100
OC(O)(C(F)(F)F)C(F)(F)F |  | > 100
S=c1[nH]nc(SCc2ccccc2Cl)c2[nH]cnc12 |  | > 100
C[C@H]1CCC/C=C/[C@@H]2C[C@H](O)C[C@H]2[C@H](O)[C@@H](SC2OC(CO)C(O)C(O)C2O)CC(=O)O1 (stereo partly drawn) | 50.5 | > 100
CCCNc1cccc(-n2ncc3c(N/N=C/c4ccncc4)ncnc32)c1 | > 25 | > 25
CCOC(=O)NC(=O)c1cn(C2OC(CO)C(O)C2O)c(=O)[nH]c1=O (stereo not drawn) |  | > 100
Cc1ccc(/C=C2\CN(Cc3cn(CCNc4ccnc5cc(Cl)ccc45)nn3)C/C(=C\c3ccc(C)cc3)C2=O)cc1 | 1.66 | 3.18

Compound | GI50 [µM] | TGI [µM]
CC1(C)O[C@@H](CP(c2cccc3ccccc23)c2cccc3ccccc23)[C@H](CP(c2cccc3ccccc23)c2cccc3ccccc23)O1 |  | > 100
O=C(NCCCCNCCCNC(=O)OCc1ccccc1)OCc1ccccc1 |  | > 100
Cc1cccc(C(O)c2cccnc2)c1O (stereo not drawn) |  | > 100
N#Cc1c(-c2ccc(Cl)cc2)cc(-c2nc3ccccc3[nH]2)nc1N |  | 69.8
COc1ccc(N2C(=O)/C(=C/c3ccc(N(CCC#N)CCC#N)cc3)N=C2c2ccccc2)c(OC)c1 |  | > 100
Cc1[nH]n(-c2ccccc2)c(=O)c1C(=O)c1ccccc1 | > 25 | > 25
c1cc2ccc1CNCCN1CCNCc3ccc(cc3)Oc3ccc(cc3)CNCCN(CCNCc3ccc(cc3)O2)CCNCc2ccc(cc2)Oc2ccc(cc2)CNCC1 | 0.94 | 2.16
CCOC(=O)N1C(=S)C(C(=O)OC)(C(=O)OC)N=C1C |  | > 100
CNC(C)Cc1ccc(O)cc1 (stereo not drawn) |  | > 100
CN(C)c1ccc(N=C(C#N)c2nc(N)nc(N3CCN(c4ccccc4)CC3)n2)cc1 | 23.7 | > 50
CC1=NN(C(=O)c2cc(Cl)cc([N+](=O)[O-])c2)C(=O)C1N=Nc1ccccc1C(=O)O (stereo not drawn) |  | > 100
COc1ccc(S(=O)(=O)n2c3ccccc3n3ncc(-c4nnc(C)o4)c23)cc1 | 0.664 | > 100
Cc1ccc([N+](=O)[O-])cc1NC(=O)C(=O)C1CCC2=C(Sc3ccccc3N2)C1=O (stereo not drawn) |  | > 100
C=C(C)[C@@H]1CC[C@]2(C)[C@H](CC=C3[C@@H]4[C@H](C)[C@@H](C)CC[C@]4(CO)CC[C@]32C)[C@@]1(C)CCCN | 1.74 | 6.38
O=C(Nc1ccccc1C(=O)O)C(=O)C(C(=O)c1ccccc1-c1ccccc1)C1OC(=O)c2ccccc21 (stereo not drawn) |  | 29.9
COc1cc2c(cc1O)CC[C@@H]1C2CC[C@@]2(C)C1CC[C@@H]2O (stereo partly drawn) |  | > 100
Cc1ccc(S(=O)(=O)N2CCN(CCO)CCN(S(=O)(=O)c3ccc(C)cc3)CCN(CCO)CC2)cc1 |  | 29.7
CCOC(=O)C1=C(C)N(c2ccc(C)cc2)C2(O)C=CC(=O)C3=C(O)c4ccccc4C(=O)C312 (stereo not drawn) |  | > 100
